# Results as given in the supplement of paper PMC8748497.
# Counter-ions that a name gives are not always drawn. The list shows a part of the results.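 The calls were made as follows: active = GRHL reporter fold change of at least 2 over DMSO at 10 µM; inactive = below 2-fold.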 Many values rest on one well or one pass, so single values are uncertain.
# Test system: HEK293 GRHL-luciferase reporter
# Experiment: GRHL luciferase reporter activity, fold change over DMSO control; higher = stronger GRHL reporter activation
# Conditions: 10 µM; 24 h
# 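Also: stable HEK293 line carrying repeated GRHL consensus sites upstream of a minimal promoter driving luciferase, luminescence read 24 h post-treatment, normalized to 0.5% DMSO vehicle wells.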
row,Compound,GRHL luciferase reporter activity
1,O=C1NCC2(CCN(CCc3ccccc3)CC2)O1,inactive: 0.984
2,Clc1ccc(COC(Cn2ccnc2)c2ccc(Cl)cc2Cl)c(Cl)c1 (configuration not stated),inactive: 1.72
3,C#CCN(C)Cc1ccccc1,inactive: 0.884
4,COC1=CC(OC)=C(C)C(=O)C1=O,active: 4.34
5,c1ccc(-c2ccc(C(c3ccccc3)n3ccnc3)cc2)cc1 (configuration not stated),active: 4.35
6,CC(C)(CO)[C@@H](O)C(=O)NCCC(=O)O [PANTOTHENIC ACID(d) Na salt],inactive: 1.05
7,N[C@@H](COP(=O)(O)O)C(=O)O,inactive: 0.996
8,CNCCCC1c2ccccc2C=Cc2ccccc21,inactive: 0.999
9,Nc1ncnc2c1ncn2[C@@H]1O[C@H](CO)[C@@H](O)[C@@H]1O,inactive: 0.825
10,O=C(O)CCc1nc2ccccc2[nH]1,inactive: 1.11
11,Cc1cc(=O)[nH]c(=S)[nH]1,inactive: 0.891
12,OC[C@H]1O[C@H]([S-])[C@H](O)[C@@H](O)[C@@H]1O.[Au+],inactive: 1.13
13,CC(=O)[C@@]1(O)CC[C@H]2[C@@H]3C[C@H](C)C4=CC(=O)C=C[C@]4(C)[C@@]3(F)[C@@H](O)C[C@@]21C,inactive: 1.24
14,CC1Cc2ccccc2N1NC(=O)c1ccc(Cl)c(S(N)(=O)=O)c1 (configuration not stated),inactive: 0.963
15,COc1ccc2[nH]cc(CCNC(C)=O)c2c1,inactive: 1.37
16,CCCCCC(=O)Cc1cc(O)cc(O)c1C(=O)Oc1cc(CC(=O)CCCCC)c(C(=O)O)c(OC)c1,inactive: 1.41
17,C[C@]12CC[C@@H]3c4ccc(OC(=O)c5ccccc5)cc4CC[C@H]3[C@@H]1CC[C@@H]2O,inactive: 1.26
